Measurements from PubChem BioAssay AID1671193 (National Center for Advancing Translational Sciences (NCATS), 2021).
Several values for one entry are separate records, joined by “and”; a condition that tells them apart may be missing. Identical values can stand only once. About 180 (0.12%) of roughly 150,000 compounds were called active. The inconclusive results got no clear call from the source; some entries with a clear call stand among them for comparison. Calls follow the shape of the dose curve; as a rule, active = well fitted cell-killing curve with a large enough effect; inconclusive = small, poorly fitted or top-dose-only effect, or effect the other way; inactive = flat fitted curve, though single readings scatter. A potency beside an inconclusive call is a rough fit, not a confirmed value.

Assay: GF-AFC viability counterscreen for inhibitors of alpha-synuclein gene (SNCA) expression; also: nearly all actives have a fitted effect of over 30% in size;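 as to activity change, negative = cytotoxicity: 0% = DMSO-treated cells and -100% = medium-only wells without cells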
Conditions: HEK-293-SNCA-luc viability, GF-AFC fluorescence, 24 h; activity change, negative = cytotoxicity: at 57.1 µM (top of the series) unless noted
Procedure, shortened: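 HEK-293-SNCA-luc cells (1500/well) plated 24 h, then exposed 24 h to a dilution series; GF-AFC added 30 min at 37C, fluorescence 405/540 nm; normalised to medium-only and DMSO wells, Hill fit.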
Potency is read from the fitted curve at half-maximal effect; tags tell the direction and shape of the fitted curve.

Which Potency does the source give for Clc1ccccc1C1(c2ccnc(NCc3ccccc3)n2)CCNCC1 here?
Its Potency is inconclusive: 35.5 µM [cytotoxic, single point].

For COCCn1c(=O)c(-c2ccccc2)nc2cnc(Oc3ccc(OC)cc3)nc21, which Potency is on record?
Its Potency is inconclusive: 6.31 µM [cytotoxic, partial curve, poor fit].

With CC[C@@]1([C@@H]2O[C@@H]([C@H]3O[C@@](O)(CO)[C@H](C)C[C@H]3C)C[C@H]2C)CC[C@H]([C@]2(C)CC[C@]3(C[C@H](O)[C@@H](C)[C@@H]([C@@H](C)[C@@H](OC)[C@H](C)C(=O)O)O3)O2)O1 as the compound, how does the Potency read?
Its Potency is inconclusive: 0.744 µM [cytotoxic, full curve, poor fit].

With Cc1cn2nc(C(=O)N3CCN(c4ccccn4)CC3)cc2c(N2CCCC2)n1 as the compound, how does the Potency read?
Its Potency is inconclusive: 7.08 µM [cytotoxic, full curve, poor fit].

With O=C(NC1CCCCC1)NC1CCN(C(=O)N2CC3CC(C2)[C@H]2CCCC(=O)N2C3)CC1 (stereo partly specified) as the compound, how does the “activity change, negative = cytotoxicity” value read?
Its value is inactive: 1.39%.

Which “activity change, negative = cytotoxicity” value does the source give for Cc1nccn1CC(=O)N1CCCn2cc(-c3cccc(C#N)c3)nc21 here?
Its value is inactive: 1.4%.

For Cc1ccc(S(=O)(=O)Nc2nc3n(n2)C(c2ccc(F)cc2)C=C(c2ccccc2)N3)cc1 (stereo unspecified), which Potency is on record?
Its Potency is inconclusive: 35.5 µM [rising, partial curve].

With COc1ccc(Cn2c(C(=O)O)c(CNCCc3cc(OC)ccc3OC)c3ccc(C)cc32)cc1 as the compound, how does the Potency read?
The Potency was inconclusive: 20 µM [cytotoxic, partial curve, poor fit].

Which Potency does the source give for CCCS(=O)(=O)NCCc1sc2nc(-c3ccc(F)cc3)nn2c1C here?
The Potency was inconclusive: 28.2 µM [cytotoxic, single point].

With COc1cc(C2Nc3c(C)cc(C)cc3-c3cc(C)nn32)cc(OC)c1O (stereo unspecified) as the compound, how does the Potency read?
Its Potency is inconclusive: 0.158 µM [rising, full curve, poor fit].

Which Potency does the source give for CCOC(=O)c1cc(NC(=O)c2ccc(F)cc2)c(=O)n2c1oc1ccccc12 here?
The Potency was inconclusive: 39.8 µM [rising, single point].

Which activity change, negative = cytotoxicity does the source give for Cc1ccc(Nc2ccnc(N3CCCC(C(=O)NCc4cccc(F)c4)C3)n2)cc1 (stereo unspecified) here?
The activity change, negative = cytotoxicity was inactive: -1.99% [at 12.5 µM].

With Cn1ncc2c(C(=O)NCc3cccc(F)c3)cc(-c3ccc(Cl)cc3Cl)nc21 as the compound, how does the Potency read?
The Potency was inconclusive: 11.2 µM [cytotoxic, partial curve, poor fit].

With Cc1ccsc1C(=O)NC1CCN(c2cnn(CC3CC3)c(=O)c2)CC1 as the compound, how does the activity change, negative = cytotoxicity read?
Its activity change, negative = cytotoxicity is inconclusive: 6.13%.

For c1cc(-c2noc([C@@H]3Cc4nc[nH]c4CN3CC3CCCCC3)n2)ccn1, which “activity change, negative = cytotoxicity” value is on record?
The value was inactive: -7.24% [at 87.6 µM].

With O=c1[nH]c(C2CCCN(Cc3ccccc3)C2)nn1-c1ccccc1 (stereo unspecified) as the compound, how does the “activity change, negative = cytotoxicity” value read?
Its value is inactive: 1.38% [at 87.6 µM].

With Cc1ccc(-n2ncc(C(=O)NCCc3ccsc3)c2C2CCN(C(=O)OC(C)(C)C)CC2)cc1C as the compound, how does the Potency read?
Its Potency is inconclusive: 39.8 µM [cytotoxic, single point].

For CN1C[C@H](NCc2ccc(F)cc2)CCC[C@@H](C(=O)NC2CC2)CC1=O, which “activity change, negative = cytotoxicity” value is on record?
The value was inactive: 5.52% [at 87.6 µM].

Which Potency does the source give for CC(C)CCN1CCC2(C1)C(=NC1CCCCC1)NC(=O)N2c1cccnc1 (stereo unspecified) here?
Its Potency is inconclusive: 8.91 µM [cytotoxic, single point].

With COCCn1c(=O)c(-c2ccc(F)cc2)nc2cnc(N(C)C)nc21 as the compound, how does the Potency read?
The Potency was inconclusive: 3.55 µM [rising, full curve, poor fit].

With Cc1oc2c(c1C(=O)NCCN(C)C)CN(C(=O)c1ccncc1)CC2 as the compound, how does the Potency read?
The Potency was inconclusive: 1 µM [cytotoxic, full curve, poor fit].

Which Potency does the source give for COc1cc2c(c(OC)c1OC)-c1ccc(OC)c(=O)cc1[C@@H](NC(C)=O)CC2 here?
The Potency was inconclusive: 10 µM [cytotoxic, partial curve, poor fit].

With COc1ccc(-c2nc(C3CC3)nc3c2CCN(Cc2ccc(C#N)cc2)CC3)cc1 as the compound, how does the Potency read?
Its Potency is inconclusive: 3.98 µM [cytotoxic, full curve, poor fit].

Which Potency does the source give for O=C(c1ccc(OCCN2CCCCC2)cc1)c1c(-c2ccc(O)cc2)sc2cc(O)ccc12 here?
The Potency was “inactive and inconclusive: 15.8 µM [cytotoxic, partial curve, poor fit]”.

Which Potency does the source give for Cc1ccc(N2CC(c3noc(-c4cccc(N(C)C)c4)n3)CC2=O)cc1 (stereo unspecified) here?
Its Potency is inconclusive: 0.708 µM [rising, full curve].

Which “activity change, negative = cytotoxicity” value does the source give for COCCNC(=O)c1cc(-c2cccnc2)nc2c1cnn2C here?
The value was inactive: 4.61% [at 87.6 µM].

With NC1CCC(Nc2cc(-c3cccc(NCc4cccc(F)c4)n3)c(Cl)cn2)CC1 (stereo unspecified) as the compound, how does the Potency read?
Its Potency is inconclusive: 0.597 µM [cytotoxic, full curve].

For CC(C)NC(=O)N1CCCC1c1noc(CCC(=O)O)n1 (stereo unspecified), which Potency is on record?
Its Potency is inconclusive: 8.91 µM [rising, partial curve, poor fit].

For COc1ccc(CNc2nc(-c3ccccc3CN(C)C)nc3ccccc23)c(OC)c1, which Potency is on record?
Its Potency is inconclusive: 31.6 µM [cytotoxic, single point].

Which “activity change, negative = cytotoxicity” value does the source give for Cc1cccc(C(=O)n2nc(-c3cccnc3)nc2NCc2ccccc2)c1 here?
The value was inactive: 1.01%.

For CC1=C[C@@H](CNC(=O)c2cnccn2)[C@H](C(C)C)C[C@H]1Cc1nc2ccc(F)cc2[nH]1, which Potency is on record?
Its Potency is inconclusive: 39.8 µM [cytotoxic, single point].

With O=C(c1cn[nH]c1-c1ccc(F)cc1)N1CCCC(Cc2noc(-c3ccccc3)n2)C1 (stereo unspecified) as the compound, how does the Potency read?
Its Potency is inconclusive: 39.8 µM [cytotoxic, single point].

For CCc1nn(CC(=O)N(C)Cc2ccccc2)c(=O)c2cc3sccc3n12, which Potency is on record?
The Potency was inconclusive: 0.178 µM [rising, full curve, poor fit].

With COc1ccc(CC(=O)N2CCC(Cc3nc(-c4ccccc4)no3)CC2)cc1Cl as the compound, how does the “activity change, negative = cytotoxicity” value read?
Its value is inactive: -14%.

For COc1ccc(-c2nc(C(C)C)nc3c2CCN(C(=O)Nc2ccc(Cl)cc2)CC3)cc1, which Potency is on record?
The Potency was inconclusive: 15.8 µM [cytotoxic, single point].

For CCS(=O)(=O)c1ncc(Cl)c(C(=O)Nc2ccccc2)n1, which Potency is on record?
The Potency was active: 7.08 µM.

For COc1ccccc1-c1nc(C(=O)N2CCC(C#N)CC2)n2ccccc12, which “activity change, negative = cytotoxicity” value is on record?
The value was inactive: 2.25%.

Which Potency does the source give for CN1c2cc(C(=O)Nc3ccc(F)cc3)ccc2C(=O)N2CCCCC21 (stereo unspecified) here?
Its Potency is inconclusive: 8.91 µM [rising, single point].

Which Potency does the source give for CC(C)c1ccc(NS(=O)(=O)c2ccc3[nH]cc(C(=O)NCCc4ccccc4)c(=O)c3c2)cc1 here?
The Potency was inconclusive: 5.62 µM [cytotoxic, single point].

For CCOC(=O)CC(NC(=O)CCc1c(C)nc2c(c1C)c(=O)n(C)c(=O)n2C)c1ccc(OCC)c(OC)c1 (stereo unspecified), which Potency is on record?
The Potency was inconclusive: 15.8 µM [rising, partial curve, poor fit].

For COc1ccc(-c2nn(-c3ccccc3)cc2C2NC(=O)NC(C)=C2C(=O)OC(C)C)cc1Cl (stereo unspecified), which Potency is on record?
The Potency was inconclusive: 10 µM [rising, partial curve, poor fit].

With Cn1cc(-c2ccnc(N3CCOCC3)c2)c2nc(COc3ccc(Cl)cc3)cn2c1=O as the compound, how does the Potency read?
The Potency was inconclusive: 7.08 µM [cytotoxic, single point].

With CN1C[C@@H](NS(=O)(=O)Cc2ccccc2)C[C@H]1c1nc(Cc2ccccc2)no1 as the compound, how does the Potency read?
Its Potency is inconclusive: 39.8 µM [cytotoxic, partial curve, poor fit].

Which “activity change, negative = cytotoxicity” value does the source give for CC(Cn1cccn1)C(=O)N1CCC2(CC1)Nc1ccccc1NC2=O (stereo unspecified) here?
The value was inactive: 9.99%.

With Fc1ccc(Nc2nc(-c3ccoc3)nc3ccccc23)cc1 as the compound, how does the Potency read?
The Potency was inconclusive: 8.91 µM [cytotoxic, full curve].

Which Potency does the source give for COc1ccc(-c2nc(Cn3c(SCc4cccc(C(F)(F)F)c4)nc4cccnc43)c(C)o2)cc1OC here?
The Potency was inconclusive: 39.8 µM [cytotoxic, single point].

Which Potency does the source give for COc1ccc(C(=O)c2sc3nc(-c4ccc(F)cc4)ccc3c2N)cc1 here?
Its Potency is inconclusive: 8.91 µM [rising, full curve].

Which Potency does the source give for CC(CCc1ccccc1)NC(=O)CSc1n[nH]c(-c2ccc(F)cc2)n1 (stereo unspecified) here?
The Potency was inconclusive: 10 µM [cytotoxic, partial curve, poor fit].

For COc1ccc(C2NC(=O)N(C)C3=C2C(=O)N(c2cccc(C(=O)O)c2)C3)cc1 (stereo unspecified), which Potency is on record?
Its Potency is inconclusive: 39.8 µM [rising, single point].

Which “activity change, negative = cytotoxicity” value does the source give for COc1cccc(-c2cccc(CN3CCCC3C(=O)NCc3ccc(F)cc3F)c2)c1 (stereo unspecified) here?
Its value is inactive: -18.8%.

For COc1cccc(-c2cccc(C(=O)N3CCCC3C(=O)NCC3CC3)c2)c1 (stereo unspecified), which Potency is on record?
Its Potency is inconclusive: 3.16 µM [cytotoxic, single point].

With CCCCN1CCN(C(=O)c2cn3ccnc(-c4ccccc4)c3n2)CC1 as the compound, how does the Potency read?
The Potency was inconclusive: 0.794 µM [rising, full curve, poor fit].

For CCOC(=O)C1=C(C)NC(C)=C(C(=O)OC)C1c1cccc([N+](=O)[O-])c1 (stereo unspecified), which Potency is on record?
The Potency was inconclusive: 31.6 µM [cytotoxic, single point].

For COc1ccc([C@H]2C[C@@H](O)[C@@H](O)[C@@H]2NCc2cnc3ccccc3c2)cc1, which Potency is on record?
Its Potency is inconclusive: 0.891 µM [cytotoxic, full curve, poor fit].

With O=C(NCc1ccc(Cl)cc1)C1CCN(c2ccnc3ccnn23)CC1 as the compound, how does the “activity change, negative = cytotoxicity” value read?
The value was inactive: 8.38%.

With CN1Cc2c(cc(N3CCOCC3)nc2-c2cccc(C(F)(F)F)c2)C1=O as the compound, how does the “activity change, negative = cytotoxicity” value read?
The value was inactive: 8.53% [at 87.6 µM].

With COc1cccc(CN2CCn3c(nnc3[C@@H]3C[C@@H](O)CN3Cc3cccnc3)C2)c1OC as the compound, how does the activity change, negative = cytotoxicity read?
Its activity change, negative = cytotoxicity is inactive: 4.12% [at 12.5 µM].

With Cc1cccc(-n2c(=O)c3ccccc3n(Cc3ccccc3)c2=O)c1 as the compound, how does the Potency read?
Its Potency is inconclusive: 11.2 µM [cytotoxic, partial curve].

For COc1ccc(C(=O)NCc2ccc3c(c2)CCN3C(=O)c2ccc(C)cc2)cc1, which Potency is on record?
Its Potency is inconclusive: 17.8 µM [cytotoxic, partial curve, poor fit].

Which “activity change, negative = cytotoxicity” value does the source give for O=S(=O)(NCC1Cn2cccc2CN1Cc1ccccc1)c1ccccc1 (stereo unspecified) here?
Its value is inactive: 5.33%.

For COCCNC(=O)[C@H]1C[C@H](Oc2ccccc2)CN1Cc1cccc(C)c1, which “activity change, negative = cytotoxicity” value is on record?
Its value is inactive: -4.89%.
